Source: PubChem BioAssay AID1468 (National Center for Advancing Translational Sciences (NCATS), 2008)
Values joined by “and” are separate entries in the source; they are usually repeats but may differ in a detail not shown here. Equal values may be shown once. Hit rate of the full screen: of about 280,000 compounds, about 1,100 (0.39%) were called active. This list was built around the results that the source calls inconclusive (neither active nor inactive); the mix of calls is not that of the screen. Calls follow the shape of the dose curve; as a rule, active = well fitted inhibition curve with a large enough effect; inconclusive = small, poorly fitted or top-dose-only effect, or effect the other way; inactive = flat fitted curve, though single readings scatter. Potencies beside an inconclusive call are fits to weak or partial responses and may not hold up.
% is scaled to controls: 0 for no effect and ±100 for the full control effect; potency is read from the fitted curve at half-maximal effect; tags tell the direction and shape of the fitted curve.
Also: nearly all actives have a fitted effect of over 55% in size.

Each compound was assayed against Microtubule-associated protein tau (Homo sapiens) (UniProt P10636) (assay: qHTS for Inhibitors of Tau Fibril Formation, Fluorescence Polarization). Conditions: K18 P301L tau heparin fibrillization, Alexa594 FP, 6 h; series mostly up to 57.7 µM.
Chain of UniProt P10636 (P10636 whole entry, looked up): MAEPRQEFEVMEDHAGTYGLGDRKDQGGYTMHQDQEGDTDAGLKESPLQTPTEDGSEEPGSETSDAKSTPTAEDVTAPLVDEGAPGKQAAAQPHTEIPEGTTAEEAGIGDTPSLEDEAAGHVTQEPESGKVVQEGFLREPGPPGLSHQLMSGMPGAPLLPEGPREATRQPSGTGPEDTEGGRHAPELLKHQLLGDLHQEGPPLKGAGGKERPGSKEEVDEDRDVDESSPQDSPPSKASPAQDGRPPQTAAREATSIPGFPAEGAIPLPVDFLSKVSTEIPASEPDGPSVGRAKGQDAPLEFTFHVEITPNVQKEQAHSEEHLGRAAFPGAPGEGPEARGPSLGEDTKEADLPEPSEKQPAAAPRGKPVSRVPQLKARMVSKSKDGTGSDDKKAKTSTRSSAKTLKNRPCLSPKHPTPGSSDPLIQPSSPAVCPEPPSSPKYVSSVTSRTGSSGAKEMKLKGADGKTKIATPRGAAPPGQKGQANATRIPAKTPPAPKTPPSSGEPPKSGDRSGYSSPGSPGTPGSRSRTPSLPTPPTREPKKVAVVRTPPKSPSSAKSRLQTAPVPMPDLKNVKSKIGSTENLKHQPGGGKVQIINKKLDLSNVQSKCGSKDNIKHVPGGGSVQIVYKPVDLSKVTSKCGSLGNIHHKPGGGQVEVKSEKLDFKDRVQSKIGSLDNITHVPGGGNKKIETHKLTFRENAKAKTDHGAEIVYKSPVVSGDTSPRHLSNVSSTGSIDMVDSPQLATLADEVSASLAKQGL
Summary of the method: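 K18 P301L tau (15 uM unlabeled/0.24 uM Alexa 594-labeled, final) + compound + heparin 20 uM final; 100 mM NaOAc pH 7; 6 hr 37 C; ThT 30 uM final added, 1 hr RT; FP ex 555/em 632 nm.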
In the case of `Cc1ccccc1CN1C(=O)c2ccccc2S(=O)(=O)c2ccc(C(=O)OCC3CCCO3)cc21` (stereo not given), the Potency is reported as “inactive”.
With `CCOc1ccc(CCNC(=O)c2cnc3sc(N4CCCC4)nn3c2=O)cc1` the Potency was “inactive”.
`Cc1nonc1NC(=O)CSc1nc(C23CC4CC(CC(C4)C2)C3)nc2ccccc12` was tested, and the Potency was inconclusive: 14.1 µM [inhibitor, partial curve].
With `COc1ccc(/C=N/NC(=O)c2nc(Cl)c(Cl)c(N)c2Cl)cc1COc1ccc(F)cc1F` the Potency was inconclusive: 20 µM [inhibitor, partial curve].
In the case of `Fc1ccc(CSc2nc3ccccc3[nH]2)c2ccccc12`, the Potency is reported as active: 25.1 µM.
With `CC(=O)Nc1ccc(NC(=O)c2ccc3c(c2)N(Cc2cccc(Cl)c2)C(=O)c2ccccc2S3(=O)=O)cc1` the Potency was active: 15.8 µM.
With `CCn1c2ccccc2c2cc(NC(=O)c3ccc(Br)o3)ccc21` the Potency was inconclusive: 35.5 µM [inhibitor, single point].
`CN1CCN(CCCNC(=O)c2ccc(/C=C3\Sc4ccccc4N(Cc4ccc(F)cc4)C3=O)cc2)CC1` was tested, and the Potency was inconclusive: 17.8 µM [inhibitor, partial curve, poor fit].
For `COc1ccc(/C=N/n2cnc3c([nH]c4ccccc43)c2=O)cc1COc1ccccn1`, the Potency was inconclusive: 39.8 µM [inhibitor, single point].
With `CC(=O)Nc1ccc2c(COC(=O)CC3Sc4ccccc4NC3=O)cc(=O)oc2c1` (stereo not given) the Potency was inconclusive: 35.5 µM [inhibitor, partial curve].
`Cc1noc(C)c1CSCC(=O)OCC(=O)Nc1sccc1C#N` was tested, and the Potency was “inactive”.
In the case of `Nc1ccccc1Nc1cc(-c2ccccc2)[nH]n1`, the Potency is reported as “inactive”.
`Cc1ccc(OCCn2c(=S)[nH]c3c(N)ncnc32)cc1` was tested, and the Potency was “inactive”.
For `CCOC(=O)C1(CCOc2ccccc2)CCN(Cc2ccc3nonc3c2)CC1`, the Potency was “inactive”.
With `CCOc1cc(/C=C/C(=O)Nc2ccc(C(=O)NCCN(CC)CC)cc2)ccc1OCC(C)C` the Potency was inconclusive: 28.2 µM [inhibitor, partial curve].
For `NNC(=O)CNC(=O)CNS(=O)(=O)c1ccccc1`, the Potency was “inactive”.
`COc1ccc(C2c3c(n(C)c4ccccc34)C(=O)N2CC(=O)Nc2cccc(F)c2)cc1` (stereo not given) was tested, and the Potency was inconclusive: 31.6 µM [inhibitor, partial curve, poor fit].
`COc1cc(CNC(=O)c2cccc(COc3ccc(Cl)cc3)c2)cc(OC)c1` was tested, and the Potency was inconclusive: 1.26 µM [inhibitor, full curve, poor fit].
`CCOC(=O)C1=C(C)N2C(=C(C#N)[C@@H]1c1ccc(C(=O)OC)cc1)SC[C@@]2(O)C(C)(C)C` was tested, and the Potency was “inactive”.
For `O=C(CSc1ncnc2c1cnn2CCc1ccccc1)Nc1cccc(C(F)(F)F)c1`, the Potency was inconclusive: 2 µM [inhibitor, partial curve].
`COc1ccc(C(=O)Nc2ccc(S(=O)(=O)N3CCOCC3)cc2)cc1OC` was tested, and the Potency was “inactive”.
`CCCS(=O)(=O)NCCc1sc2nc(-c3ccc(F)cc3)nn2c1C` was tested, and the Potency was “inactive”.
In the case of `O=C(Nc1nc(-c2cccs2)cs1)c1cc2ccccc2oc1=O`, the Potency is reported as “inactive”.
With `Nc1c(N2CCCC2)cc(Cl)c2nonc12` the Potency was inconclusive: 10 µM [inhibitor, partial curve].
In the case of `O=C(Nc1ccc(C#Cc2ccccc2)cc1)C1CC1`, the Potency is reported as inconclusive: 14.1 µM [inhibitor, partial curve].
In the case of `Cc1c(Cl)cccc1NS(=O)(=O)c1ccc2c(c1)C1C=CCC1C(c1ccc(C(=O)O)cc1)N2` (stereo not given), the Potency is reported as inconclusive: 35.5 µM [inhibitor, single point].
For `O=c1oc2ccccc2cc1-c1csc(NN=C2CCCC2)n1`, the Potency was inconclusive: 5.01 µM [activator, full curve, poor fit].
With `O=C(NCC(=O)N(Cc1ccco1)C(C(=O)NC1CCCCC1)c1cccnc1)c1ccco1` (stereo not given) the Potency was “inactive”.
With `Cc1ccc2c(c1)cc(C(=O)Nc1ccc(F)cc1F)n2C` the Potency was “inactive”.
With `Cc1ccn2c(Nc3ccc4c(c3)OCCO4)c(-c3ccc(Cl)s3)nc2c1` the Potency was inconclusive: 10 µM [activator, partial curve, poor fit].
For `Cc1ccc([N+](=O)[O-])cc1NC(=O)Nc1cccc(F)c1`, the Potency was inconclusive: 39.8 µM [inhibitor, single point].
In the case of `Cn1c(=O)c2cc(C(=O)N3CCN(c4ccc(Cl)cc4)CC3)sc2c2ccccc21`, the Potency is reported as “inactive”.
`O=C(COC(=O)c1ccc[nH]c1=O)c1ccc(Cl)s1` was tested, and the Potency was inconclusive: 39.8 µM [inhibitor, single point].
In the case of `O=Nc1c(-c2cccc([N+](=O)[O-])c2)nc2ncccn12`, the Potency is reported as active: 6.31 µM.
For `O=C(Cc1cc(=O)[nH][nH]1)N/N=C/c1c(F)cccc1Cl`, the Potency was inconclusive: 2.51 µM [inhibitor, partial curve].
`O=C(Nc1cc([N+](=O)[O-])ccc1Cl)C(Sc1ccccc1)c1ccccc1` (stereo not given) was tested, and the Potency was inconclusive: 3.16 µM [activator, single point].
`O=C1/C(=C\c2ccco2)CCC/C1=C\c1ccco1` was tested, and the Potency was inconclusive: 39.8 µM [inhibitor, single point].
`COC(C(C)/C=C/CC(=O)OCCCc1ccccc1)C1CCCCC1` (stereo not given) was tested, and the activity, negative = inhibition was inactive: -3.28% [at 11.6 µM].
With `COC(=O)c1c(C)sc(-c2c(-c3ccc4c(c3)OCCO4)[nH]c3c2c(=O)n(C)c(=O)n3C)c1O` the Potency was inconclusive: 15.8 µM [activator, partial curve].
For `CC(=O)Nc1ccc(C(=O)OCC(=O)Nc2ccccc2Sc2ccccc2)cc1`, the Potency was inconclusive: 12.6 µM [inhibitor, partial curve, poor fit].
For `COC(=O)CC1c2cc(OC)c(OC)cc2CCN1C(=O)Nc1ccc(C)cc1Cl` (stereo not given), the Potency was “inactive”.
`COc1ccccc1Nc1nn2c(=O)c3ccc(C(=O)NCCCOC(C)C)cc3nc2s1` was tested, and the Potency was inconclusive: 31.6 µM [inhibitor, single point].
For `N#C/C(=C/c1cn(Cc2ccc(F)cc2)c2ccccc12)C(=O)Nc1cccc(Cl)c1`, the Potency was inconclusive: 31.6 µM [inhibitor, partial curve].
For `COc1cc(-c2noc(-c3ccc(NCc4cccnc4)c([N+](=O)[O-])c3)n2)cc(OC)c1OC`, the Potency was “inactive”.
With `Cc1ccc(COc2ccc(Br)cc2/C=N/O)cc1` the Potency was inconclusive: 35.5 µM [inhibitor, single point].
With `c1ccc(CNc2nc(-c3cccs3)nc3ccccc23)nc1` the Potency was inconclusive: 28.2 µM [inhibitor, single point].
With `CCc1ccccc1NC(=O)N1CCN(c2cc(-c3noc(C)n3)ccc2C)CC1` the Potency was “inactive”.
With `COc1ccc(N2CCN(C(CNC(=O)C(=O)NCc3cccs3)c3ccco3)CC2)cc1` (stereo not given) the Potency was inconclusive: 11.2 µM [activator, partial curve].
In the case of `CCCCn1c(NS(=O)(=O)c2ccc(C)cc2)c(S(=O)(=O)c2ccccc2)c2nc3ccccc3nc21`, the Potency is reported as “inactive”.
`O=[N+]([O-])c1cc(O)c2ncccc2c1` was tested, and the Potency was “inactive”.
With `O=C(Nc1cccc(Cl)c1Cl)c1ccc2c(c1)N(Cc1cccc(Cl)c1)C(=O)c1ccccc1S2(=O)=O` the Potency was inconclusive: 31.6 µM [inhibitor, partial curve].
For `COc1cccc(NC(=O)c2ccc(NC(=O)C(C)(C)C)cc2)c1`, the Potency was “inactive”.
`O=S(=O)(Nc1ccc(Cl)cc1)c1ccc(NS(=O)(=O)c2ccc3c(c2)OCCO3)cc1` was tested, and the Potency was active: 14.1 µM.
In the case of `O=C(O)CCSc1nc2ccc(Br)cc2[nH]1`, the Potency is reported as inconclusive: 44.7 µM [inhibitor, single point].
For `CCCNC(=O)c1ccc(-n2c(-c3ccccc3)cc3c2CCC(C)C3)cc1` (stereo not given), the Potency was active: 12.6 µM.
For `CCO[C@@H]1OC(C(=O)N2CCN(Cc3ccc4c(c3)OCO4)CC2)=C[C@H](c2ccc(C(F)(F)F)cc2)[C@H]1CCCO`, the Potency was inconclusive: 0.708 µM [activator, single point].
`CCOc1ccc(C2NC(=O)C(C#N)=C(S)N2c2ccc(C)cc2)cc1OC` (stereo not given) was tested, and the Potency was inconclusive: 39.8 µM [inhibitor, single point].
`Cc1oc(C(=O)Nc2ccc(O)cc2)cc1COc1ccccc1` was tested, and the Potency was “inactive”.
For `CCc1cc2ccc(C)cc2nc1SCC(=O)c1ccc(NC(C)=O)cc1`, the Potency was inconclusive: 28.2 µM [inhibitor, partial curve, poor fit].
In the case of `CN(C)S(=O)(=O)c1ccc2c(c1)N(CC(=O)N1CCN(c3ccc(F)cc3)CC1)CCS2`, the Potency is reported as inconclusive: 1.58 µM [activator, partial curve].
In the case of `COc1ccc(-c2noc(-c3nnn(-c4cc(C)ccc4C)c3N)n2)cc1`, the Potency is reported as inconclusive: 31.6 µM [inhibitor, partial curve, poor fit].
`CCN(CC)CCOC(=O)c1ccc(NC(=O)c2cn(-c3ccccc3)nc2-c2cccs2)cc1` was tested, and the Potency was active: 11.2 µM.
With `Cn1cccc1CC(=O)N/N=C/c1ccc(Cl)c([N+](=O)[O-])c1` the Potency was “inactive”.
In the case of `CC(C)[C@H](CO)Nc1nc(Nc2cc(N)cc(Cl)c2)c2ncn(C(C)C)c2n1`, the Potency is reported as inconclusive: 10 µM [activator, partial curve].
For `O=C1CCCC2=C1C(c1ccc(O)cc1)c1c(ccc3ccccc13)N2` (stereo not given), the Potency was “inactive”.
For `COc1ccccc1-c1ccc(/C=C2\C=CC(=O)O2)o1`, the Potency was “inactive”.
`O=C(COc1ccccc1-c1ccccc1)Nc1ccc(S(=O)(=O)NCc2ccco2)cc1` was tested, and the Potency was “inactive”.
With `CCOC(=O)c1c(O)c2c([nH]c1=O)CCCC2` the Potency was “inactive”.
`O=C(c1ccc(OCCN2CCCCC2)cc1)c1c(-c2ccc(O)cc2)sc2cc(O)ccc12` was tested, and the Potency was inconclusive: 1.58 µM [activator, partial curve] and inconclusive: 2.51 µM [activator, single point].
With `CSc1nsc2nc(=O)c(/C=C3\C(C)=Nc4ccc(C)cc43)c(N)n12` the Potency was inconclusive: 44.7 µM [inhibitor, single point].
